# According to ChEMBL document CHEMBL4513137, “CO-ADD screening of University of Manchester (UK) compounds”:
# Some of the results follow. Potency and affinity values are given separately.
# Test system: Pseudomonas aeruginosa
# Details: Concentration 32 ug.mL-1; ASSAY_TEST Inhibition of Bacterial Growth; detection method Absorption (OD600); MEDIA CAMHB; plate type 384well; NBS; CORNING #3640; time 18 hr
row,Structure (SMILES),Inhibition [%]
1,CC(=O)c1ccc(-c2ccccc2Nc2ccccc2)cc1,28.85
2,O=[N+]([O-])c1cc(Cl)c(-c2ccccc2Nc2ccccc2)c(Cl)c1,45.19
3,O=[N+]([O-])c1ccc(-c2ccccc2Nc2ccccc2)cc1C(F)(F)F,49.55
4,Cc1cc(C)c(Nc2ccccc2-c2ccc([N+](=O)[O-])cc2)c(C)c1,-8.25
5,O=[N+]([O-])c1ccc(-c2ccccc2Nc2ccccc2Br)cc1,46.63
6,COc1cc([N+](=O)[O-])ccc1-c1ccccc1Nc1ccccc1,44.78
7,O=[N+]([O-])c1ccc(-c2ccccc2Nc2ccccc2)cc1F,55.36
8,Cc1cccc(C)c1Nc1ccccc1-c1ccccc1[N+](=O)[O-],22.81
9,O=[N+]([O-])c1ccc(-c2c(Nc3ccccc3)ccc3ccccc23)cc1,13.41
10,Cc1ccccc1Nc1ccccc1-c1ccc([N+](=O)[O-])cc1,-5.81
11,CC[C@@H](Nc1ccccc1-c1c(Cl)cc(Br)cc1Cl)c1ccccc1,48.28
12,Clc1cc(Br)cc(Cl)c1-c1ccccc1Nc1ccccc1,32.77
13,c1ccc(Nc2ccccc2-c2ncccn2)cc1,60.14
14,COc1cccc(N(C)c2cccc(OC)c2-c2ccc([N+](=O)[O-])cc2C)c1,7.16
15,O=[N+]([O-])c1ccc(-c2cccc3c2[nH]c2ccccc23)cc1,43.72
16,CN(c1ccccc1)c1ccccc1-c1ccc([N+](=O)[O-])cc1,40.33
17,COc1ccc(Nc2ccccc2-c2ccc([N+](=O)[O-])cc2)cc1,65.22
18,Cc1cc([N+](=O)[O-])ccc1-c1ccccc1N(C)c1ccccc1,-8.3
19,N#Cc1ccc(-c2ccccc2Nc2ccccc2)cc1,39.97
20,COc1cccc(Nc2ccccc2)c1-c1c(Cl)cc(Br)cc1Cl,61.56
21,O=[N+]([O-])c1ccc(-c2ccccc2Nc2ccccc2)cc1,-5.45
22,O=[N+]([O-])c1ccc(-c2c(Nc3ccccc3)cccc2-c2ccccc2)cc1,19.1
23,COc1cc([N+](=O)[O-])ccc1-c1c(Nc2ccccc2)cccc1OC,30.66
24,O=[N+]([O-])c1ccc(-c2ccccc2N(Cc2ccccc2)c2ccccc2)cc1,47.94
25,O=[N+]([O-])c1ccc(-c2ccccc2Nc2ccccc2)c(Cl)c1,46.67
26,O=[N+]([O-])c1ccc2c3ccccc3n(-c3ccccc3)c2c1,37.57
27,COc1cccc(Nc2ccccc2)c1-c1ccc([N+](=O)[O-])cc1,2.06
